No constants are given. Whether binding was seen depends on the method and setting. Binding seen in cells or lysates may run through a third protein. Some binding calls cover weakened binding; strength is not graded here.
Columns and labels:
[1] = biological target: Flag-p53 construct lacking the TAD (UniProt P04637); experiment: co-IP; HEK293T cells transfected with HA-OTUD7B and Flag-p53 constructs; lysates subjected to IP with anti-Flag antibodies, Western blot of input and IP; IP buffer 20 mM Tris, 150 mM NaCl, pH 7.8, 0.5% NP-40
Flag-p53-G279E = Flag-p53-G279E (UniProt P04637); experiment: as above
Flag-tagged wildtype p53 [2] = biological target: Flag-tagged wildtype p53 (UniProt P04637); experiment: as above
[3] = biological target: endogenous OTUD7B (human (endogenous in HEK293T, HepG2, MHCC-97H and Huh7)) (UniProt Q6GQQ9); experiment: co-IP; endogenous proteins in lysates of HepG2, MHCC-97H or Huh7 cells; IP and Western blot; IP buffer 20 mM Tris, 150 mM NaCl, pH 7.8, 0.5% NP-40
Flag-tagged wildtype p53 [4] = biological target: Flag-tagged wildtype p53 (UniProt P04637); experiment: co-IP; HEK293T cells transfected with Flag-OTUD7B or Flag-p53; IP and immunoblotting with anti-Flag, p53 and OTUD7B antibodies; endogenous partner detected; IP buffer 20 mM Tris, 150 mM NaCl, pH 7.8, 0.5% NP-40
[5] = biological target: endogenous mutant p53 R249S of MHCC-97H cells (human (endogenous in MHCC-97H)) (UniProt P04637); experiment: co-IP; endogenous proteins in lysates of HepG2, MHCC-97H or Huh7 cells; IP and Western blot; IP buffer 20 mM Tris, 150 mM NaCl, pH 7.8, 0.5% NP-40
[6] = biological target: endogenous p53 (wildtype) (human (endogenous in HEK293T and HepG2)) (UniProt P04637); experiment: as above
Flag-tagged OTUD7B = Flag-tagged OTUD7B (UniProt Q6GQQ9); experiment: co-IP; HEK293T cells transfected with Flag-OTUD7B or Flag-p53; IP and immunoblotting with anti-Flag, p53 and OTUD7B antibodies; endogenous partner detected; IP buffer 20 mM Tris, 150 mM NaCl, pH 7.8, 0.5% NP-40

Protein sequences, listed by entry. Tags and fused reporters are not part of them.
UniProt Q6GQQ9: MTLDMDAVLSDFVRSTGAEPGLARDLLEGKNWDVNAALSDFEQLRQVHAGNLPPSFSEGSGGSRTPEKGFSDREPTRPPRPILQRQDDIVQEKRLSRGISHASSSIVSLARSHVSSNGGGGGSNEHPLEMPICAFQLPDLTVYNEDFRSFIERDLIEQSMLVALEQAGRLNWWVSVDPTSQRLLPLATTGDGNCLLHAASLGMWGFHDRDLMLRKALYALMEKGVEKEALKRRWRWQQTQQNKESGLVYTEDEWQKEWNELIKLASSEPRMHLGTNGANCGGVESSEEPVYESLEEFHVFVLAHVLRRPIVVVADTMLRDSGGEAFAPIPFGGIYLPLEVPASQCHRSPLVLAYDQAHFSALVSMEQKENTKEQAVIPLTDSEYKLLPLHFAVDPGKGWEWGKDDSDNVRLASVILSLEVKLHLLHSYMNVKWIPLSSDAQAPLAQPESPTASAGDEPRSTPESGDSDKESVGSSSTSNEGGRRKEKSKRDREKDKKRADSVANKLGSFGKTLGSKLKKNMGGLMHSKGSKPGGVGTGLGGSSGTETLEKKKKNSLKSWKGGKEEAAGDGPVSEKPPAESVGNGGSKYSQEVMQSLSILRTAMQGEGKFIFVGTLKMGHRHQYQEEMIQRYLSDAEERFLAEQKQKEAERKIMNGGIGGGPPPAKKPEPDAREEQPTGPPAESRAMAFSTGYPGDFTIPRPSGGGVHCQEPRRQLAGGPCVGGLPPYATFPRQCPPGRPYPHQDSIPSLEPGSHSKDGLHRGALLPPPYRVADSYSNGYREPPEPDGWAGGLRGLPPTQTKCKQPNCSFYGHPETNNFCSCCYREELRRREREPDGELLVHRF
UniProt Q00987: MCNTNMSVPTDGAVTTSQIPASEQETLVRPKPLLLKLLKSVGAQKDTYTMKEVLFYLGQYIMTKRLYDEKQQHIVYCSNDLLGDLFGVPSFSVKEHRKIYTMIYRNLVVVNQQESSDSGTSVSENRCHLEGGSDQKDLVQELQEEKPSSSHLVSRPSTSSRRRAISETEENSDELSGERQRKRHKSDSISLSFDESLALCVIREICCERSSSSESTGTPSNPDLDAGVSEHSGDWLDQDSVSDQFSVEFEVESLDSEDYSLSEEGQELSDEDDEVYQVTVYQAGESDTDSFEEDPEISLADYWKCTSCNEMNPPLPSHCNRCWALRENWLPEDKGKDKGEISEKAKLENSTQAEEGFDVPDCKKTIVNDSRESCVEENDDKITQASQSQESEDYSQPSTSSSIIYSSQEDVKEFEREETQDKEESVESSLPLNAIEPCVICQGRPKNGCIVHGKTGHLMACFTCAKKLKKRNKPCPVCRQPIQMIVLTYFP

HA-tagged OTUD7B (from UniProt Q6GQQ9 1-843) (enzyme)
binding [1]: binds
binding (Flag-p53-G279E): binds
binding (Flag-tagged wildtype p53 [2]): binds

endogenous Mdm2 (from UniProt Q00987 1-491) (enzyme)
binding [3]: no binding

endogenous OTUD7B (from UniProt Q6GQQ9 1-843) (enzyme)
binding (Flag-tagged wildtype p53 [4]): binds
binding [5]: binds
binding [6]: binds

endogenous p53 (wildtype) (from UniProt P04637 1-393)
binding (Flag-tagged OTUD7B): binds
binding [3]: binds

— paper PMC11840744
